Structures are written as SMILES. Screen size: about 310,000 compounds; about 14,000 (4.5%) showed an effect of 50% or more. The effect is printed as a negative number. This is one part of the list.
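Further: peak tail current of the secondary pulse compared with the same well before compound.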

human ether-à-go-go-related gene (hERG) potassium channel, sequence (Q12809 whole entry, looked up): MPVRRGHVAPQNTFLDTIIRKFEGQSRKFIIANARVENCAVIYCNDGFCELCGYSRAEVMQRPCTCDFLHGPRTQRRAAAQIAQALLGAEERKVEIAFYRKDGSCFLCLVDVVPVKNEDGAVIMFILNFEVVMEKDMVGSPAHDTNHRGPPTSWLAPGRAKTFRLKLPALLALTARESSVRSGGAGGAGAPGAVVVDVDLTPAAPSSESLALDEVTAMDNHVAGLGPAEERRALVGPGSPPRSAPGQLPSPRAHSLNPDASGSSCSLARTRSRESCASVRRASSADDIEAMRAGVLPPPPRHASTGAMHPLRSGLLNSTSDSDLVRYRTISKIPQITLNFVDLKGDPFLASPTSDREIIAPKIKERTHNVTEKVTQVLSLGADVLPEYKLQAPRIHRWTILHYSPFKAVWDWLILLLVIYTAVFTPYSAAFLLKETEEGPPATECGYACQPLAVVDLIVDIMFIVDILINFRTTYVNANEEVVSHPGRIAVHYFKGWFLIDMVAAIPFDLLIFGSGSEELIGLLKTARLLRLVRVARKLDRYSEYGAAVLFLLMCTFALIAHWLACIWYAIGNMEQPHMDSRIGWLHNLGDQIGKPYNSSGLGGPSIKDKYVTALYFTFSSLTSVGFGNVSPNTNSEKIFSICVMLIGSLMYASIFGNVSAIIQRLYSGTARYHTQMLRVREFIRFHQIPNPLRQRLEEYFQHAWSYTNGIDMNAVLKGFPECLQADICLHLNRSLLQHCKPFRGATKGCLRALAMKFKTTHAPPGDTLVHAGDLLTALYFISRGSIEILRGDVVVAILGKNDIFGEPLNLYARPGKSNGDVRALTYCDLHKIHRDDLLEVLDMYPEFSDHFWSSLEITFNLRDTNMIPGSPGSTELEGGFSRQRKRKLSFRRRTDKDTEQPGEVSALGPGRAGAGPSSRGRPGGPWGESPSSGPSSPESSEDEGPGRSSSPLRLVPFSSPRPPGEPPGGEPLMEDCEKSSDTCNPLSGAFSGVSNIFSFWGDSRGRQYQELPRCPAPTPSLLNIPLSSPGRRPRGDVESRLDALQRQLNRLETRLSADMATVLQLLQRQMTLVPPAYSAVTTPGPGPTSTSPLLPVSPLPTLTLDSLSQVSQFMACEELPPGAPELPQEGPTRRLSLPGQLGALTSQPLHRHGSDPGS

This assay concerns the target human ether-à-go-go-related gene (hERG) potassium channel (human, UniProt Q12809). As to the kind of experiment: primary screen, population patch clamp on CHO cells stably expressing hERG.
In the case of `Cc1cc(Cc2cc(C)c(N)cc2C)c(C)cc1N`, the “hERG current change (%, negative = inhibition) at 10uM” value is listed as 14.5%.

With `O=C(COC(=O)c1ccccc1[N+](=O)[O-])Nc1nnc(-c2ccccc2)o1`, the “hERG current change (%, negative = inhibition) at 10uM” value came to 18.4%.

On to `CC(C)NS(=O)(=O)c1ccc(OCC(=O)NCc2ccc3c(c2)OCO3)c(Cl)c1`, for which the “hERG current change (%, negative = inhibition) at 10uM” value is reported as -16.2%.

Turning to `Cc1cccc(C)c1NC(=O)CSc1ccc([N+](=O)[O-])cn1`, the “hERG current change (%, negative = inhibition) at 10uM” value is listed as -12.3%.

On to `CCOC(=O)C1CN(S(=O)(=O)c2ccc(C)cc2)CCN1S(=O)(=O)c1ccc(C)cc1` (centres unmarked), for which the “hERG current change (%, negative = inhibition) at 10uM” value was -0.0378%.

For `CCOc1ccc(CCNC(=O)c2cc3sc(Cl)cc3n2C)cc1OCC`, the “hERG current change (%, negative = inhibition) at 10uM” value is on record as 18.8%.

For the compound `CN(CC(=O)Nc1ccccc1Br)C(=O)CN1CCN(Cc2ccc(Cl)cc2)CC1`, the “hERG current change (%, negative = inhibition) at 10uM” value was -66.9%.

Regarding `CC(C)(O)[C@H](O)COc1c2occc2cc2ccc(=O)oc12`, the “hERG current change (%, negative = inhibition) at 10uM” value was found to be 10.1%.

As to `CCc1ccc(NSc2ccccc2[N+](=O)[O-])cc1`, the “hERG current change (%, negative = inhibition) at 10uM” value worked out at 5.89%.

With `COc1cc(CCN2C(=O)c3cccc4cccc(c34)C2=O)c(S(=O)(=O)NCCO)cc1OC`, the “hERG current change (%, negative = inhibition) at 10uM” value is recorded as -23.8%.

On to `Cc1cc(C)n(/N=C/c2c[nH]c3ccccc23)c(=O)c1`, for which the “hERG current change (%, negative = inhibition) at 10uM” value worked out at 10.6%.

Regarding `Cc1[nH]c2ccccc2c1/C=C(\C#N)C(=O)NC1CC1`, the “hERG current change (%, negative = inhibition) at 10uM” value turned out to be 5.75%.

As to `C=CCn1c(SCC(=O)Nc2ccc(C(=O)OCC)cc2)nnc1-c1sc(N)nc1C`, the “hERG current change (%, negative = inhibition) at 10uM” value is given as -8.97%.

Regarding `COc1ccc(C(=O)COC(=O)c2ccco2)cc1`, the “hERG current change (%, negative = inhibition) at 10uM” value came out at 11.5%.

Consider `Cc1cc(NC(=O)c2c(F)cccc2Cl)no1`, for which the “hERG current change (%, negative = inhibition) at 10uM” value turned out to be 27.5%.

For `Cc1ccc(NC(=O)CC(=O)NCCN2CCOCC2)cc1`, the “hERG current change (%, negative = inhibition) at 10uM” value was 4.65%.

As for `Cc1cccc2nc(CSc3nc4ccccc4[nH]3)cn12`, the “hERG current change (%, negative = inhibition) at 10uM” value is -12.9%.

Consider `C=CCn1c(O)c(N=NC(=O)CNC(=O)c2cccs2)c2ccccc21`, for which the “hERG current change (%, negative = inhibition) at 10uM” value is -28.8%.

Turning to `COCCn1c(C(F)(F)F)ccc(NC(=O)c2ccccc2)c1=O`, the “hERG current change (%, negative = inhibition) at 10uM” value was -13.6%.

`Cc1cc(C(=O)CSc2nc3ccccc3n2C)c(C)n1C`: the “hERG current change (%, negative = inhibition) at 10uM” value came to 11.1%.

Take `CSc1nnc(-c2cccn(Cc3ccccc3)c2=O)o1`: the “hERG current change (%, negative = inhibition) at 10uM” value was 8.73%.

Consider `COC(=O)c1ccn(CSc2cc(Cl)ccc2Cl)n1`, for which the “hERG current change (%, negative = inhibition) at 10uM” value is recorded as 9.54%.

For `O=C(CCNC(=O)Cn1cnc2ccccc2c1=O)NCC1CCCO1` (centres unmarked), the “hERG current change (%, negative = inhibition) at 10uM” value is listed as 9.55%.

For `Cc1ccc(C(=O)CC(=O)c2ccccc2C)c(O)c1`, the “hERG current change (%, negative = inhibition) at 10uM” value turned out to be 2.17%.

Turning to `Cc1nn(CC(=O)NCCCN2CCCC2)c(=O)c2nn(-c3ccccc3)c(C)c12`, the “hERG current change (%, negative = inhibition) at 10uM” value amounted to 13.1%.

On to `C[C@@H]1C[C@H]2OC(=O)C3(CO3)[C@H]2[C@H](O)[C@]2(C)C(=O)C3OC3[C@@H]12` (some centres unmarked), for which the “hERG current change (%, negative = inhibition) at 10uM” value is recorded as 23.2%.

As for `CC(=O)c1cc(-c2ccccc2)n(CCC(=O)NC2CCCC2)c1C`, the “hERG current change (%, negative = inhibition) at 10uM” value came out at 0.876%.

As to `N#CC(C#N)=C1c2cc(S(=O)(=O)NCCO)ccc2-c2ccc(S(=O)(=O)NCCO)cc21`, the “hERG current change (%, negative = inhibition) at 10uM” value is reported as 0.947%.

For `O=C(NC1CCN(Cc2ccccc2)C1)c1cc(S(=O)(=O)N2CCOCC2)ccc1Cl` (centres unmarked), the “hERG current change (%, negative = inhibition) at 10uM” value was -33.2%.

On to `O=C(Nc1cccc(Cl)c1Cl)c1ccncc1`, for which the “hERG current change (%, negative = inhibition) at 10uM” value is 14.8%.

`Cc1nc(SCc2c(F)cccc2Cl)c2c(=O)n(C)c(=O)n(C)c2n1`: the “hERG current change (%, negative = inhibition) at 10uM” value was -11%.

For `Cc1ccc(S(=O)(=O)/N=C(/c2ccccc2)N(C)c2ccc(O)cc2)cc1`, the “hERG current change (%, negative = inhibition) at 10uM” value is -6.14%.

On to `COc1ccc(N(CC(=O)N2CCc3ccccc3C2)S(C)(=O)=O)cc1`, for which the “hERG current change (%, negative = inhibition) at 10uM” value is on record as -19.6%.

`Cn1c(SCC(=O)O)nc2ccccc2c1=O`: the “hERG current change (%, negative = inhibition) at 10uM” value is listed as -0.0128%.

For `C[C@H](NC(=O)[C@H](Cc1ccccc1)NC(=O)c1cc2cc(Cl)ccc2n1C)C(=O)O`, the “hERG current change (%, negative = inhibition) at 10uM” value is 21.3%.

With `Cc1occc1C(=O)N/N=C/C(Br)=C/c1ccccc1`, the “hERG current change (%, negative = inhibition) at 10uM” value came out at 9.07%.

For the compound `O=C(CSc1nnc(C2CC2)n1-c1ccccc1)Nc1ccc(N2CCOCC2)cc1`, the “hERG current change (%, negative = inhibition) at 10uM” value is reported as 7.36%.

For the compound `COc1ccc(N2CCN(c3nc4ccccn4c(=O)c3/C=C(\C#N)S(=O)(=O)c3ccccc3)CC2)cc1`, the “hERG current change (%, negative = inhibition) at 10uM” value is recorded as -2.49%.

`Cl.Fc1ccc(CNCc2ccc3c(c2)OCO3)cc1`: the “hERG current change (%, negative = inhibition) at 10uM” value is recorded as 2.11%.

For `Cc1ccccc1N(C(=O)c1csnn1)C(C(=O)NC(C)(C)C)c1ccncc1` (centres unmarked), the “hERG current change (%, negative = inhibition) at 10uM” value was determined as 10.8%.

Regarding `O=C(Nc1cc(Cl)c(Cl)cc1Cl)c1cccnc1`, the “hERG current change (%, negative = inhibition) at 10uM” value was -6.92%.

For the compound `CC(=O)NC(c1ccco1)c1cc(F)c2cccnc2c1O` (centres unmarked), the “hERG current change (%, negative = inhibition) at 10uM” value is listed as -0.00822%.

As for `CCOc1ccc(NC(=S)N2CCc3cc(OC)c(OC)cc3C2COc2ccc3c(C)cc(=O)oc3c2)cc1` (centres unmarked), the “hERG current change (%, negative = inhibition) at 10uM” value is given as -5.76%.

Regarding `CC(NS(=O)(=O)/C=C/c1ccccc1)C(=O)NCCc1ccc(S(N)(=O)=O)cc1` (centres unmarked), the “hERG current change (%, negative = inhibition) at 10uM” value was 14.9%.

The values above are taken from publication PMC4336329 (PLoS ONE, 2015).
